First the molecules themselves.
B1: CPEB3 Ribozyme (parent)
chain: UAACAGGGGGCCACAGCAGAAGCGUUCACGUCGCAGCCCCUGUCAGAUUCUGGUGAAUCUGCGAAUUCUGCUGUAUAUCUC

The source gives no read counts; variants with many changes may rest on few reads.

The variants in the series derive from B1. Put plainly: self-cleavage, relative activity (ratio to wild type); higher = more cleavage; in vitro, sequencing. The method, boiled down: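 Relative activity compares each variant's cleaved/total read fraction with that of the unmutated ribozyme. To get these fractions, barcoded CPEB3 ribozyme libraries from rounds of error-prone PCR were transcribed with T7 RNA polymerase for 5 hours at 37°C and then given 15 min of DNase I treatment before EDTA was added. The RNAs were reverse transcribed with template switching and sequenced on Illumina, and DNA sequencing linked barcodes to variants. A minimum of 5 reads applied, and three batches were averaged.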
For G8A A28U U51A, the self-cleavage is 0.07.
As to G8C A28G G30A U31A, the self-cleavage turned out to be 0.06.
For G8U C62U G73U the value was 0.05; for G8A A45U A47G U69C, 0.
For G8A U25C U31C A45G, the self-cleavage came out at 0.05.
In the case of G8A U31G A47U, the self-cleavage came to 0.2.
As for G8U A21G U26A U48C U51A A65G, the self-cleavage stood at 0.03.
For the variant G8U A18U U41C, the self-cleavage came to 0.17.
Consider G8U C14U A21U U26C, for which the self-cleavage was found to be 0.03.
For the variant G8U A28G U41C U60A A64U U72C, the self-cleavage worked out at 0.1.
On to G8A U25A U26A A57G, for which the self-cleavage stood at 0.04.
As for G8A A28G A47U U69A, the self-cleavage turned out to be 0.11.
Turning to G8A C29A U49A U67C U78C U80C, the self-cleavage is 0.06.
For G8A U41A A77U, the self-cleavage came out at 0.06.
On to G8A A21G U60A U80G, for which the self-cleavage was determined as 0.05.
With G8A U49C U60A, the self-cleavage was 0.15.
Turning to G8U A15U C44G U60A A65U, the self-cleavage is 0.06.
On to G8U A18G U67C, for which the self-cleavage came to 0.09.
The same measure for G8A U25C A56U U72C U74C: 0.07.
As for G8U A18G A28G A56G, the self-cleavage was found to be 0.05.
With G8A C14U G61A U78C, the self-cleavage was determined as 0.05.
Turning to G8C U43C G52A U54C U72C A75U, the self-cleavage worked out at 0.1.
Consider G8A U26A A35U, for which the self-cleavage stood at 0.15.
For the variant G8A G16C G42A U74C, the self-cleavage is 0.07.
The same measure for G8U A35C U41A: 0.04; for G8A G10A U31G U60A U69C: 0.05.
The same measure for G8U A20G A47G U49A C62A U69C: 0.1; for G8U C12U U49C U67C C79G: 0.09; for G8U A21G U25C A45U U60A: 0.08.
As to G8A C23U U74A, the self-cleavage came out at 0.39.
The same measure for G8U G33A U69C: 0.1; for G8A A45G A64C U72C C79U: 0.02.
The same measure for G8U A35G C37G U41C C59A: 0.16.
The same measure for G8U A13U U72A: 0.17.
For the variant G8A U41C A57G U67C, the self-cleavage stood at 0.12.
Regarding G8U G9U C40G U49C A64U, the self-cleavage was 0.04.
For the variant G8A A35G U48C U69A, the self-cleavage was 0.07.
The same measure for G8U U26A A35G: 0.22; for G8C U51C G63U: 0.08.
For the variant G8A C50G U72A, the self-cleavage is 0.07.
Take G8A A28G U51A: the self-cleavage was found to be 0.17.
For G8U A21G U43G A45U U76A U78C, the self-cleavage is 0.05.
Turning to G8A U69C U78A, the self-cleavage stood at 0.2.
As to G8U G10A U31A A56U, the self-cleavage turned out to be 0.05.
On to G8A A35U U67A U74A, for which the self-cleavage came out at 0.22.
Regarding G8A U25C C32U U76C, the self-cleavage was 0.25.
On to G8C C12G C39G U69A, for which the self-cleavage stood at 0.21.
In the case of G8U U25C U26C A28U U54A U78C, the self-cleavage stood at 0.17.
Regarding G8A C34U G61A, the self-cleavage was 0.06.
Regarding G8A A56G U67C, the self-cleavage is 0.22.
In the case of G8U A13G G52U G73U, the self-cleavage came out at 0.26.
The same measure for G8A A75G C79A: 0.09; for G8A C14U A56G: 0.23; for G8U A21G U72A U80C: 0.06.
Take G8C G24C A35G U48C: the self-cleavage was 0.05.
For G8U G52U A56U, the self-cleavage worked out at 0.15.
G8A U31C U43A U78A: the self-cleavage was 0.17.
Take G8C U25A A35G U72C: the self-cleavage was 0.17.
Consider G8U C40U U49A U69C U80C, for which the self-cleavage amounted to 0.13.
The same measure for G8U A18U U48C: 0.06; for G8U A18U A21G A35U U67C: 0.04.
Turning to G8A A45U A56G U74C, the self-cleavage was found to be 0.05.
Regarding G8A A65G U67C, the self-cleavage is 0.05.
For the variant G8U U26C A64C, the self-cleavage is 0.15.
For G8A G10U G24U A28U A75U the value was 0.47; for G8U U26C U43A A45C C68A, 0.04; for G8A U25C U60A A75G, 0.14.
G8A U60C U72C U80C: the self-cleavage amounted to 0.07.
The same measure for G8A A35U A45C U69C: 0.05; for G8A C34G A45U U51C U66C U80C: 0.06.
Regarding G8U A13U G33U A45G U48A A57U, the self-cleavage stood at 0.16.
For the variant G8A U51C A64G A77G, the self-cleavage was determined as 0.04.
The same measure for G8A U25C U26C U41C U66C U80G: 0.1.
The same measure for G8A C38A C40U U66C U72C: 0.27.
With G8A U66C U72C U74C, the self-cleavage worked out at 0.07.
Consider G8C U26C U48C, for which the self-cleavage turned out to be 0.21.
Consider G8C A13G C32U C44U U80C, for which the self-cleavage is 0.3.
For G8A U31C U74C U78A, the self-cleavage was found to be 0.39.
For G8U A28C C40A U41G U48C U66G A77G the value was 0.03; for G8A A47G U76A, 0.41; for G8A U25C U41C U43C C62A, 0.06.
In the case of G8A C44U A47G G63A, the self-cleavage turned out to be 0.07.
For G8U A21G C23A U54A U69A A75G C79U the value was 0.03; for G8U A20U U25C G33U U72C, 0.05.

Values taken from the RNAGym collection of RNA variant scans (doi:10.1093/nar/gkz1192).
